# Measurements reported in ChEMBL document CHEMBL4888484, “Replenishing the malaria drug discovery pipeline: Screening and hit evaluation of the MMV Hit Generation Library 1 (HGL1) against asexual blood stage Plasmodium falciparum ,using a nano luciferase reporter read-out” (2022).
# Among all 150,000 compounds or so, about 540 (0.36%) showed an effect of 50% or more. The list shows a part of the results.
# Tested on: Plasmodium falciparum
# Assay: Primary screen in NF54 nanoGlo assay, in single point, at 2uM, 72h; a lower Z score goes with more inhibition
# Format: functional, Erythrocyte
# Details: timepoint 72 hour
Structure (SMILES),% Inhibition [%],Z score
CCOC(=O)C(=O)Nc1nnc(C(C)C)s1,-10,1.89
CN1C(=O)[C@@H]2CC[C@H]1CN(Cc1c(-c3ccccc3)nc3ncccn13)C2,1,-0.17
Cc1cc(C(=O)[C@H](C#N)c2nc(C(C)C)cs2)c(C)o1,-10,1.62
CNC(=O)[C@H](CNC(=O)c1ccc(=O)[nH]n1)Cc1ccc(F)cc1C,-8,1.4
CCOc1ccc(CNC(=O)c2sc3ncnc(N(C)C4CCCCC4)c3c2C)cc1,-13,1.18
Cc1ccc(N(C(=O)CC2CS(=O)(=O)C2)C2CCOCC2)cc1F,-10,1.38
CC(C)C(=O)NCCc1ccc(Cl)s1,-6,1.14
Cc1ccc(CN2CCN(Cc3cc(=O)n4ncnc4[nH]3)C[C@@H]2CCO)o1,-5,0.98
Clc1cnc(NCCCO[C@H]2CCOC2)c(Cl)c1,-7,1.14
CCCc1ncc(CN2CCC(Oc3cccc(F)c3)(C(=O)O)CC2)cn1,-2,0.35
CCN(CC)[C@@H](CNC(=O)c1ccc2c(c1)NC(=O)CN2C)c1ccco1,3,-0.35
C[C@@H]1Oc2ccc(NC(=O)c3cc(Cl)c4c(c3)OCCCO4)cc2NC1=O,-14,1.92
CC1(C)CN(Cc2nncs2)c2cc(F)ccc21,-4,0.34
O=C1c2cccnc2[C@@H](Nc2ccc(F)cc2Cl)N1c1ccccc1,-9,1.11
C[C@H](NCCC(=O)N1CCOCC1)c1cc2cc(Cl)ccc2o1,5,-0.49
CC(C)[C@@H](C)NC(=O)N1CCC(n2cc(CN3[C@H](C)CCC[C@@H]3C)nn2)CC1,-10,1.35
O=C(C1CCOCC1)N1CC[C@@](F)(c2cccc(C(F)(F)F)c2)C1,-13,1.66
CC(C)n1cc(NC(=O)[C@H](Cc2ccccc2)N(C)C)cn1,-16,3.04
COc1cc(C)ccc1OCc1nc(C(=O)N2CCCCCCC2)co1,-20,2.71
CN1CCCC[C@@H]1CNC(=O)c1ccc2nc(-c3ccc(F)cc3)cn2c1,-5,0.91
O=C(c1cc(-c2ccccn2)nc2c(Cl)cccc12)N1CCN(C(=O)[C@@H]2CCCO2)CC1,-13,1.65

Structure (SMILES),% Inhibition [%],Z score
CCc1cc(N2CCCN(S(C)(=O)=O)CC2)n2nccc2n1,-2,0.32
CCc1nc(C)c(CNC(=O)c2ccc3nc(-c4ccccc4)cn3c2)s1,-21,2.66
Cc1nc(-c2nc(-c3ncoc3C)n([C@H]3CCS(=O)(=O)C3)n2)cs1,-25,2.27
Cc1nn(C)c(C)c1CNC(=O)c1nn(C)c2c1COCC2,-11,1.44
Cc1cccc(O[C@@H](C)c2nnc(-c3ccc4c(c3)nnn4C)o2)c1C,8,-1.08
O=C(Nc1ccc(C(=O)c2ccccc2)cc1NC(=O)c1ccc(Cl)cc1)c1ccc(Cl)cc1,-6,0.77
CCC(C(=O)NCC(C)c1ccccc1)n1c2ccccc2c2cnn(C)c(=O)c21 (stereo unspecified),-7,1.27
CC(C)(C)OC(=O)N1CCC(CO)CC1,-1,0.22
Cc1nnc2sc(-c3ccc(CNC(=O)c4ccc(Br)cc4)cc3)nn12,0,-0.01
Cc1ccc(Cl)c(NS(=O)(=O)c2cc(-c3[nH]ncc3C(=O)N(C)C)oc2C)c1,-13,2.06
COc1cnc(N(C)C[C@H]2CCCOC2)c(Br)c1,-1,0.15
CCN(C1CCCCC1)S(C)(=O)=O,-9,0.98
O=C(CN1CCN(c2ccc3c(c2)OCCO3)C1=O)N1CCN(C(=O)[C@@H]2CCCO2)CC1,3,-0.53
CC(C(=O)N(C)C)S(=O)(=O)C(C)c1cccc(Br)c1 (stereo unspecified),-1,0.16
COCCNS(=O)(=O)c1cnc(N(C)CCOC)c(Cl)c1,4,-0.43
Cc1c(Cl)cccc1NC(=O)CN1C(=O)CCn2nc(-c3cn(C)c4ccccc34)cc21,4,-0.66
COCCNS(=O)(=O)c1c[nH]c(C(=O)OC2CCCCCCC2)c1,-7,1.06
CC(C)CC(=O)Nc1ccc(N2CCCN(C(=O)c3ccccc3F)CC2)c(C(=O)NCc2ccc(F)cc2)c1,-3,0.49
Cc1cc(C)n([C@H]2CC(=O)[C@@H]3OCC2O3)n1,34,-3.81
O=C(NCc1ccnc(-c2ccncc2)c1)c1ccncc1,2,-0.25
Cc1cc(CS(=O)(=O)NC2(c3ccc(Br)cc3)CC2)on1,-5,0.89

Structure (SMILES),% Inhibition [%],Z score
CC(C)c1nc(CCN2Cc3ncccc3C2=O)no1,-5,0.49
Cc1cccc(-c2ncccc2CNC(=O)CC2CCCC2)c1,2,-0.26
COCc1ncc(-c2noc(C3CC3C)n2)c(N)n1 (stereo unspecified),-16,2.53
CS(=O)(=O)N(CCCN1CCOCC1)[C@H]1CCN(C(=O)Nc2ccccc2F)C1,-7,0.88
COC(=O)[C@H]1CCc2nnc(C(=O)NCc3ccc(Cl)cc3)n2C1,-12,1.98
CC1CCC(N(C)CC(=O)NC2CCCC2)CC1 (stereo unspecified),-6,0.77
Cc1nn(-c2ccccc2)c2sc(C(=O)N3CCC3)cc12,27,-3.02
Cc1nc(CN2C(=O)COc3cc(S(=O)(=O)N4CCCC4)c(Cl)cc32)no1,-14,1.65
Cc1cnc(CN2C[C@]3(CCCN(C(=O)c4ccn(C)n4)C3)CCC2=O)cn1,-5,0.75
O=C(N[C@@]12COC[C@@H]1C2)c1cc2nccc(C(F)(F)F)n2n1,-11,2.02
O=C(O)CC1(NCc2cc(Br)cc3cccnc23)CCOCC1,0,0.06
Nc1c(C(=O)Nc2ccc3c(c2)OCCO3)sc2ncccc12,1,-0.11
CCc1nc(-c2ccccc2)nc(N2CCN(C(C)=O)CC2)c1Cc1ccc(F)cc1,-12,1.44
O=C(Cn1cnc2c(-c3ccc(F)cc3)nsc2c1=O)N1CCN(c2ccccc2F)CC1,-9,1.39
CC(C)CCNC(=O)N1CCC(Oc2nc(C(C)C)nc3c2CCOCC3)CC1,-10,1.58
Cn1c(C(=O)Nc2ccc(F)c(Cl)c2)cc2occc21,-2,0.37
CCCCn1ccc(=O)c(OCc2ccccc2)c1C,-9,1.68
Cc1ccc2[nH]nc(CNC(=O)[C@H]3CCOC3)c2c1,-16,1.51
NC(=O)c1c(NC(=O)c2cc(-c3ccccc3Cl)nc3ccccc23)sc2c1CCCCC2,7,-0.79
CC(C)(O)[C@H]1CCN(Cc2[nH]c3ccccc3c2Cl)C1,-4,0.35
CCCCc1nc(CN2CCC(CCC(=O)NC[C@H]3CCCO3)CC2)c[nH]1,-24,2.18

Structure (SMILES),% Inhibition [%],Z score
Cc1cc(C(=O)Nc2ccc([C@H]3OCC(=O)N[C@@H]3CO)cc2)no1,-1,0.15
Cc1ccc(S(=O)(=O)N2CCc3c(c(-c4nc(-c5ccccc5)no4)nn3C)C2)cc1Cl,-7,1.16
CCn1nc(C(=O)O)c2c1CC[C@H](N1CCN(c3nc(C)cc(C)n3)CC1)C2,-9,1.33
O=C(NCCOCc1ccccc1)c1ccc(CN2CCCC2)o1,-8,0.85
CCCCN(Cc1ccco1)c1ncnc2oc(C)nc12,13,-1.7
CCc1nnc(CN[C@H]2CCCC[C@H]2CC(F)(F)F)n1C,7,-0.95
COc1cccc(C2CC(O)CN2C(=O)c2cnn3ccc(C)nc23)c1 (stereo unspecified),-5,0.98
CN(Cc1noc(-c2ccccc2)n1)C(=O)c1nc2ccc(F)cc2[nH]1,-8,1.07
CCc1cc([C@@H]2CCCN2C(=O)Cc2cccs2)on1,-5,0.64
CCC1CCN(C(=O)CS(=O)(=O)NC)CC1,13,-1.51
COc1cn(CC(=O)Nc2n[nH]c(Cc3ccc(F)cc3)n2)c(C)cc1=O,-11,1.48
Cc1nc(C(=O)N2CCN([C@@H](C)c3ccccc3F)CC2)c[nH]1,1,-0.22
CC(C)(C)c1cnc(CCC(=O)NCCc2cc(F)ccc2F)o1,4,-0.49
O=C1N[C@H](Cc2ccc(O)cc2)C(=O)N2C[C@H](O)C[C@@H]12,-2,0.42
CO[C@@H](C(=O)NCCc1nc(C(C)C)nn1C)c1ccccc1,-11,1.68
Cc1cc(CNc2nc(NCc3cc(C)no3)nc(C3CCCC3)n2)on1,7,-1.14
Cc1nnsc1C(=O)N[C@@H](C)Cc1ccco1,-3,0.44
O=C(Cc1nc(Cc2ccc(F)cc2)n[nH]1)Nc1ccc2c(c1)OCO2,-8,1.04
CN(C)C(=O)c1cncc(-c2cnc3ccccc3c2)n1,-4,0.5
CC(=O)Nc1nc(C(=O)N2CCNC(=O)C[C@@H]2C)cs1,1,-0.15
